# According to the supplement of paper PMC8728848:
# The list shows a part of the results.
# B1: LcH (Lens culinaris), P02870 (protein)
# chain: TETTSFSITKFSPDQQNLIFQGDGYTGKEGLTLTKVSKETGGRALYSTPIHIWDRDTVNVANFVTNGSQVFRESPNGYNVADGFTFFIAPVDTKPQTGGGYLGVFYNGKEYDKTSQTVAVEFDTFYNAAWDPSNKERHIGIDVNSIKSVNTKSWNLQNGVTSYTLNEVVPLKDVVPEWVRIGFSATTGAEFAAQEVHSWSFNSQLGHTSKS
# How the values were obtained:
# Test in all cases: glycan array binding signal (z-score within array); higher = stronger binding
# Details in all cases: glycan notation: IUPAC condensed, linker removed
# [1] = target: Fuc(a1-2)[Gal(a1-3)]Gal(b1-4)GlcNAc(b1-2)Man(a1-3)[Fuc(a1-2)[Gal(a1-3)]Gal(b1-4)GlcNAc(b1-2)Man(a1-6)]Man(b1-4)GlcNAc(b1-4)GlcNAc
# Summary of the method: (§1)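 Glycan array data came from 3228 arrays in the Consortium for Functional Glycomics database, and only arrays with an available protein sequence were kept. Glycan names were put into IUPAC-condensed notation, and columns mapping to the same glycan were averaged. The binding signal is a within-array Z-score, averaged across arrays of one protein sequence run at different concentrations or buffers and across linkers. A negative Z-score can be read as non-binding.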
# [2] = target: Fuc(a1-2)[Gal(a1-3)]Gal(b1-4)[Fuc(a1-3)]GlcNAc
# Summary of the method: as §1
# [3] = target: Fuc(a1-2)[Gal(a1-4)]Gal(b1-4)GlcNAc
# Summary of the method: as §1
# [4] = target: Fuc(a1-2)[GalNAc(a1-3)]Gal
# Summary of the method: as §1
# [5] = target: Fuc(a1-2)[GalNAc(a1-3)]Gal(b1-3)GlcNAc
# Summary of the method: as §1
# [6] = target: Fuc(a1-2)[GalNAc(a1-3)]Gal(b1-3)GlcNAc(b1-2)Man(a1-3)[Fuc(a1-2)[GalNAc(a1-3)]Gal(b1-3)GlcNAc(b1-2)Man(a1-6)]Man(b1-4)GlcNAc(b1-4)GlcNAc
# Summary of the method: as §1
# [7] = target: Fuc(a1-2)[GalNAc(a1-3)]Gal(b1-4)Glc
# Summary of the method: as §1
# [8] = target: Fuc(a1-2)[GalNAc(a1-3)]Gal(b1-4)GlcNAc
# Summary of the method: as §1
# [9] = target: Fuc(a1-2)[GalNAc(a1-3)]Gal(b1-4)GlcNAc(b1-2)Man(a1-3)[GalNAc(a1-3)[Fuc(a1-2)]Gal(b1-4)GlcNAc(b1-2)Man(a1-6)]Man(b1-4)GlcNAc(b1-4)GlcNAc
# Summary of the method: as §1
# [10] = target: Fuc(a1-2)[GalNAc(a1-3)]Gal(b1-4)GlcNAc(b1-3)Gal(b1-4)GlcNAc
# Summary of the method: as §1
# [11] = target: Fuc(a1-2)[GalNAc(a1-3)]Gal(b1-4)GlcNAc(b1-3)Gal(b1-4)GlcNAc(b1-3)Gal(b1-4)GlcNAc
# Summary of the method: as §1
# [12] = target: Fuc(a1-2)[GalNAc(a1-3)]Gal(b1-4)[Fuc(a1-3)]GlcNAc
# Summary of the method: as §1
# [13] = target: Fuc(a1-2)[GalNAc(a1-4)]Gal(b1-4)GlcNAc
# Summary of the method: as §1
# [14] = target: Fuc(a1-2)[GalNAc(b1-3)]Gal
# Summary of the method: as §1
# Fuc(a1-3)GlcNAc = target: Fuc(a1-3)GlcNAc
# Summary of the method: as §1
# [15] = target: Fuc(a1-3)[Gal(b1-4)]Glc6S
# Summary of the method: as §1
# [16] = target: Fuc(a1-3)[Gal(b1-4)]GlcNAc
# Summary of the method: as §1
# [17] = target: Fuc(a1-3)[Gal(b1-4)]GlcNAc(b1-2)Man(a1-3)[Fuc(a1-3)[Gal(b1-4)]GlcNAc(b1-2)Man(a1-6)]Man(b1-4)GlcNAc(b1-4)GlcNAc
# Summary of the method: as §1
# [18] = target: Fuc(a1-3)[Gal(b1-4)]GlcNAc(b1-2)Man(a1-6)[Gal(b1-4)GlcNAc(b1-2)Man(a1-3)]Man(b1-4)GlcNAc(b1-4)GlcNAc
# Summary of the method: as §1
# [19] = target: Fuc(a1-3)[Gal(b1-4)]GlcNAc(b1-3)Gal(b1-3)[Fuc(a1-4)]GlcNAc
# Summary of the method: as §1
# [20] = target: Fuc(a1-3)[Gal(b1-4)]GlcNAc(b1-4)Gal(b1-4)[Fuc(a1-3)]GlcNAc
# Summary of the method: as §1
# [21] = target: Fuc(a1-3)[Gal(b1-4)]GlcNAc(b1-4)Gal(b1-4)[Fuc(a1-3)]GlcNAc(b1-4)Gal(b1-4)[Fuc(a1-3)]GlcNAc
# Summary of the method: as §1
# [22] = target: Fuc(a1-3)[Gal(b1-4)]GlcNAc6S
# Summary of the method: as §1
# [23] = target: Fuc(a1-3)[Gal3S(b1-4)]Glc6S
# Summary of the method: as §1
# [24] = target: Fuc(a1-3)[Gal3S(b1-4)]GlcNAc
# Summary of the method: as §1
# [25] = target: Fuc(a1-3)[Gal3S(b1-4)]GlcNAc6S
# Summary of the method: as §1
# [26] = target: Fuc(a1-3)[GalNAc(b1-4)]GlcNAc
# Summary of the method: as §1
# [27] = target: Fuc(a1-3)[Neu5Ac(a2-3)]Gal(b1-4)GlcNAc(b1-3)GalNAc
# Summary of the method: as §1
# Fuc(a1-4)GlcNAc = target: Fuc(a1-4)GlcNAc
# Summary of the method: as §1
# Fuc(b1-3)GlcNAc = target: Fuc(b1-3)GlcNAc
# Summary of the method: as §1
binder,measurement,setting,value
B1,glycan array binding signal (z-score),[1],-0.119
same,glycan array binding signal (z-score),[2],-0.092
same,glycan array binding signal (z-score),[3],-0.121
same,glycan array binding signal (z-score),[4],-0.074
same,glycan array binding signal (z-score),[5],-0.093
same,glycan array binding signal (z-score),[6],-0.117
same,glycan array binding signal (z-score),[7],-0.127
same,glycan array binding signal (z-score),[8],-0.134
same,glycan array binding signal (z-score),[9],-0.102
same,glycan array binding signal (z-score),[10],-0.119
same,glycan array binding signal (z-score),[11],-0.108
same,glycan array binding signal (z-score),[12],-0.093
same,glycan array binding signal (z-score),[13],-0.14
same,glycan array binding signal (z-score),[14],-0.1
same,glycan array binding signal (z-score),Fuc(a1-3)GlcNAc,-0.116
same,glycan array binding signal (z-score),[15],-0.116
same,glycan array binding signal (z-score),[16],-0.106
same,glycan array binding signal (z-score),[17],-0.099
same,glycan array binding signal (z-score),[18],-0.083
same,glycan array binding signal (z-score),[19],-0.125
same,glycan array binding signal (z-score),[20],-0.084
same,glycan array binding signal (z-score),[21],-0.134
same,glycan array binding signal (z-score),[22],-0.088
same,glycan array binding signal (z-score),[23],-0.119
same,glycan array binding signal (z-score),[24],-0.088
same,glycan array binding signal (z-score),[25],-0.11
same,glycan array binding signal (z-score),[26],-0.128
same,glycan array binding signal (z-score),[27],-0.132
same,glycan array binding signal (z-score),Fuc(a1-4)GlcNAc,-0.13
same,glycan array binding signal (z-score),Fuc(b1-3)GlcNAc,-0.135
